# Laboratory results published in the supplement of paper PMC8728848.
# The list shows a part of the results.
# Tests used:
# Assay in all cases: glycan array binding signal (z-score within array); higher = stronger binding
# Settings in all cases: glycan notation: IUPAC condensed, linker removed
# [1] = molecular target: Fuc(a1-2)[GalNAc(a1-3)]Gal(b1-3)GlcNAc(b1-6)GalNAc
# In short: (§1)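 The binding signal is a Z-score computed within each array. Data were drawn from 3228 arrays in the Consortium for Functional Glycomics database, restricted to those with a known protein sequence. Scores were averaged over arrays of the same protein sequence at different concentrations or buffers, and over linkers, and negative values can be taken as non-binding.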
# [2] = molecular target: Fuc(a1-2)[GalNAc(a1-3)]Gal(b1-4)Glc
# In short: as §1
# [3] = molecular target: Fuc(a1-2)[GalNAc(a1-3)]Gal(b1-4)GlcNAc
# In short: as §1
# [4] = molecular target: Fuc(a1-2)[GalNAc(a1-3)]Gal(b1-4)GlcNAc(b1-2)Man
# In short: as §1
# [5] = molecular target: Fuc(a1-2)[GalNAc(a1-3)]Gal(b1-4)GlcNAc(b1-2)Man(a1-3)[Fuc(a1-2)[GalNAc(a1-3)]Gal(b1-4)GlcNAc(b1-2)Man(a1-6)]Man(b1-4)GlcNAc(b1-4)GlcNAc
# In short: as §1
# [6] = molecular target: Fuc(a1-2)[GalNAc(a1-3)]Gal(b1-4)GlcNAc(b1-2)Man(a1-3)[Fuc(a1-2)[GalNAc(a1-3)]Gal(b1-4)GlcNAc(b1-2)Man(a1-6)]Man(b1-4)GlcNAc(b1-4)[Fuc(a1-6)]GlcNAc
# In short: as §1
# [7] = molecular target: Fuc(a1-2)[GalNAc(a1-3)]Gal(b1-4)GlcNAc(b1-3)Gal(b1-4)GlcNAc
# In short: as §1
# [8] = molecular target: Fuc(a1-2)[GalNAc(a1-3)]Gal(b1-4)GlcNAc(b1-3)Gal(b1-4)GlcNAc(b1-3)Gal(b1-4)GlcNAc
# In short: as §1
# [9] = molecular target: Fuc(a1-2)[GalNAc(a1-3)]Gal(b1-4)GlcNAc(b1-3)GalNAc
# In short: as §1
# [10] = molecular target: Fuc(a1-2)[GalNAc(a1-3)]Gal(b1-4)GlcNAc(b1-3)[Fuc(a1-2)[GalNAc(a1-3)]Gal(b1-4)GlcNAc(b1-6)]GalNAc
# In short: as §1
# [11] = molecular target: Fuc(a1-2)[GalNAc(a1-3)]Gal(b1-4)GlcNAc(b1-6)GalNAc
# In short: as §1
# [12] = molecular target: Fuc(a1-2)[GalNAc(a1-3)]Gal(b1-4)[Fuc(a1-3)]GlcNAc
# In short: as §1
# [13] = molecular target: Fuc(a1-2)[GalNAc(a1-3)]Gal(b1-4)[Fuc(a1-3)]GlcNAc(b1-3)GalNAc
# In short: as §1
# [14] = molecular target: Fuc(a1-2)[GalNAc(a1-4)]Gal(b1-4)GlcNAc
# In short: as §1
# [15] = molecular target: Fuc(a1-2)[GalNAc(b1-3)]Gal
# In short: as §1
# Fuc(a1-3)GlcNAc = molecular target: Fuc(a1-3)GlcNAc
# In short: as §1
# [16] = molecular target: Fuc(a1-3)[Gal(b1-4)]Glc6S
# In short: as §1
# [17] = molecular target: Fuc(a1-3)[Gal(b1-4)]GlcNAc
# In short: as §1
# [18] = molecular target: Fuc(a1-3)[Gal(b1-4)]GlcNAc(b1-2)Man
# In short: as §1
# [19] = molecular target: Fuc(a1-3)[Gal(b1-4)]GlcNAc(b1-2)Man(a1-3)[Fuc(a1-3)[Gal(b1-4)]GlcNAc(b1-2)Man(a1-6)]Man(b1-4)GlcNAc(b1-4)GlcNAc
# In short: as §1
# [20] = molecular target: Fuc(a1-3)[Gal(b1-4)]GlcNAc(b1-2)Man(a1-3)[Fuc(a1-3)[Gal(b1-4)]GlcNAc(b1-2)Man(a1-6)]Man(b1-4)GlcNAc(b1-4)[Fuc(a1-6)]GlcNAc
# In short: as §1
# [21] = molecular target: Fuc(a1-3)[Gal(b1-4)]GlcNAc(b1-3)Gal(b1-3)[Fuc(a1-4)]GlcNAc
# In short: as §1
# [22] = molecular target: Fuc(a1-3)[Gal(b1-4)]GlcNAc(b1-3)Gal(b1-4)[Fuc(a1-3)]GlcNAc
# In short: as §1
# [23] = molecular target: Fuc(a1-3)[Gal(b1-4)]GlcNAc(b1-3)Gal(b1-4)[Fuc(a1-3)]GlcNAc(b1-3)Gal(b1-4)[Fuc(a1-3)]GlcNAc
# In short: as §1
# [24] = molecular target: Fuc(a1-3)[Gal(b1-4)]GlcNAc(b1-3)GalNAc
# In short: as §1
# [25] = molecular target: Fuc(a1-3)[Gal(b1-4)]GlcNAc(b1-6)GalNAc
# In short: as §1
# [26] = molecular target: Fuc(a1-3)[Gal(b1-4)]GlcNAc(b1-6)[Gal(b1-3)GlcNAc(b1-3)]Gal(b1-4)Glc
# In short: as §1
# [27] = molecular target: Fuc(a1-3)[Gal(b1-4)]GlcNAc6S
# In short: as §1
# [28] = molecular target: Fuc(a1-3)[Gal3S(b1-4)]Glc
# In short: as §1
# [29] = molecular target: Fuc(a1-3)[Gal3S(b1-4)]GlcNAc
# In short: as §1
# [30] = molecular target: Fuc(a1-3)[Gal3S(b1-4)]GlcNAc6S
# In short: as §1
# [31] = molecular target: Fuc(a1-3)[GalNAc(b1-4)]GlcNAc
# In short: as §1
# [32] = molecular target: Fuc(a1-3)[GalNAc(b1-4)]GlcNAc6S
# In short: as §1
# Fuc(a1-4)GlcNAc = molecular target: Fuc(a1-4)GlcNAc
# In short: as §1
# Fuc(b1-3)GlcNAc = molecular target: Fuc(b1-3)GlcNAc
# In short: as §1
# Gal(a1-2)Gal = molecular target: Gal(a1-2)Gal
# In short: as §1
# Gal(a1-3)Gal = molecular target: Gal(a1-3)Gal
# In short: as §1
binder,measurement,setting,value
ClecSol-Fc (Cryptosporidium parvum) (protein) CPEGWISNGEKTRCFKLVTFDRPRTFSHGFKACNDLGGTEVETRRRNGSKETNEYPVTLASVYKLSDEEAIRRTLVEQGDIHKTANGCFVGLRKYAFFRYPPGWYWIDSGSPVSVRDSEINWTSSYNASWLLRFKFPFEKCGFFDIGGLGRRPCWLIDSELSCAVCGTVAYDSGGLNPNKYSELIKQTDEIISKEPKLDLPGYNNLNCTDAWENNLSVGLCQNVSNILDSAWSSYQSSLNFPSINFNWKEDSTNEGGDQVYHNSYLDLPRYKQKKTFYWDQDPGTIPALSDEMKLIGLSAQPTYHPLDRSSSGSFESDSTESGRANEERNDTLEEMIYKQSSDSIEDILVPVTKPIFSDYSSIGRNSGVEEVYSSNVSTISSKGVVFPNTTTSSDNDFTKNNPANSSKHTSTSTTTNTTTTTTRTTTTTTTTTTTTTTTTTTTTETTTTKKSTTATKNTTTT,glycan array binding signal (z-score),[1],-0.093
same,glycan array binding signal (z-score),[2],-0.168
same,glycan array binding signal (z-score),[3],-0.261
same,glycan array binding signal (z-score),[4],-0.172
same,glycan array binding signal (z-score),[5],0.124
same,glycan array binding signal (z-score),[6],-0.166
same,glycan array binding signal (z-score),[7],-0.198
same,glycan array binding signal (z-score),[8],-0.068
same,glycan array binding signal (z-score),[9],-0.169
same,glycan array binding signal (z-score),[10],-0.225
same,glycan array binding signal (z-score),[11],-0.196
same,glycan array binding signal (z-score),[12],-0.281
same,glycan array binding signal (z-score),[13],-0.174
same,glycan array binding signal (z-score),[14],-0.202
same,glycan array binding signal (z-score),[15],-0.168
same,glycan array binding signal (z-score),Fuc(a1-3)GlcNAc,-0.265
same,glycan array binding signal (z-score),[16],0.276
same,glycan array binding signal (z-score),[17],-0.035
same,glycan array binding signal (z-score),[18],-0.22
same,glycan array binding signal (z-score),[19],-0.255
same,glycan array binding signal (z-score),[20],0.593
same,glycan array binding signal (z-score),[21],-0.002
same,glycan array binding signal (z-score),[22],-0.185
same,glycan array binding signal (z-score),[23],-0.153
same,glycan array binding signal (z-score),[24],0.034
same,glycan array binding signal (z-score),[25],0.222
same,glycan array binding signal (z-score),[26],0.068
same,glycan array binding signal (z-score),[27],0.07
same,glycan array binding signal (z-score),[28],-0.003
same,glycan array binding signal (z-score),[29],-0.127
same,glycan array binding signal (z-score),[30],0.082
same,glycan array binding signal (z-score),[31],0.055
same,glycan array binding signal (z-score),[32],-0.242
same,glycan array binding signal (z-score),Fuc(a1-4)GlcNAc,-0.052
same,glycan array binding signal (z-score),Fuc(b1-3)GlcNAc,-0.044
same,glycan array binding signal (z-score),Gal(a1-2)Gal,0.039
same,glycan array binding signal (z-score),Gal(a1-3)Gal,-0.307
